The campaign covered roughly 310,000 compounds. About 2,200 (0.71%) showed an effect of 50% or more. Effects have a minus sign here. This is one part of the list.
biological target: human ether-à-go-go-related gene (hERG) potassium channel (human, UniProt Q12809); assay: primary screen, population patch clamp on CHO cells stably expressing hERG
Sequence (Q12809 whole entry, looked up): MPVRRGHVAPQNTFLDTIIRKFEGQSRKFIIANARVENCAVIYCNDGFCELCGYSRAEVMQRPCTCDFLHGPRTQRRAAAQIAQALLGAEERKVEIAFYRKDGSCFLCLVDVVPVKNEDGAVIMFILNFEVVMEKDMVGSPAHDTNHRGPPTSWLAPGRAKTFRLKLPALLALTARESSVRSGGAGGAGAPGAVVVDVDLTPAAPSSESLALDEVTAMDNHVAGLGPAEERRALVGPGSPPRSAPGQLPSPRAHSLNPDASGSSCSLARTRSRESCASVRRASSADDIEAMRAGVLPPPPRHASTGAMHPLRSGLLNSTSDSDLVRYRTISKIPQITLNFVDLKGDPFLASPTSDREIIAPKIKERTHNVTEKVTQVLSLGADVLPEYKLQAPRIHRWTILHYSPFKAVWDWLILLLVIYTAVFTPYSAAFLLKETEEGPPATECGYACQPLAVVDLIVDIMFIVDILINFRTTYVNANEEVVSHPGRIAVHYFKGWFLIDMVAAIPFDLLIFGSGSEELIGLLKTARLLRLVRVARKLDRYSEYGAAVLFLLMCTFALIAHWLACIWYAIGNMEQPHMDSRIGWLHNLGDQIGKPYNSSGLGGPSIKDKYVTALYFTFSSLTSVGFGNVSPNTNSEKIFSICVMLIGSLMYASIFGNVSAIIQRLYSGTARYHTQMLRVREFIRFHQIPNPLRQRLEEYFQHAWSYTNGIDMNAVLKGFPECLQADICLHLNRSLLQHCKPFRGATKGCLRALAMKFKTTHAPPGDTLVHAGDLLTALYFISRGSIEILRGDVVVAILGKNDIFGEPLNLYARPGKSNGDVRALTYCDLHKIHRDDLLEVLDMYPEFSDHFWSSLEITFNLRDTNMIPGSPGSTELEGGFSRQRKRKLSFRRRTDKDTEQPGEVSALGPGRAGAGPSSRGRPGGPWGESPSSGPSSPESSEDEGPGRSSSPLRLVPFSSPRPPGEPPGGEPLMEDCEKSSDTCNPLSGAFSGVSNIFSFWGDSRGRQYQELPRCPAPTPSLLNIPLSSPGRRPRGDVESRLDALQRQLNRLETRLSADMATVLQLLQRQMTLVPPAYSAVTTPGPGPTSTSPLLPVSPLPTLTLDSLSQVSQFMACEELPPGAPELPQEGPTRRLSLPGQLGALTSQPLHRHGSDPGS

Row | SMILES | hERG current change (%, negative = inhibition) at 1uM [%]
1 | COc1cc(CC(=O)Nc2sccc2C(N)=O)cc(OC)c1OC | 8.31
2 | NS(=O)(=O)c1cc(C(=O)OCC(=O)Nc2ccc(Cl)cc2[N+](=O)[O-])ccc1Cl | -6.86
3 | O=C(c1ccccc1)N1CCN=C1c1ccccc1 | 8.17
4 | CCOC(=O)C1CCN(C(=O)c2ccc(OCC(=O)Nc3ccc(OCC)cc3)c(OC)c2)CC1 | 0.466
5 | O=C(COc1ccc(Cl)cc1Cl)NC(=O)c1ccccc1 | 9.53
6 | N#CC(c1ccccc1)N(CCCCl)C(=O)c1ccccc1 (stereo not shown) | 6.07
7 | Cc1ccc(Cl)cc1NC(=O)C(NS(=O)(=O)c1cccs1)c1ccccc1 (stereo not shown) | 12.3
8 | CCC(=O)NNC(=O)Cc1c(C)n(C(=O)c2ccc(Cl)cc2)c2ccc(OC)cc12 | 15.9
9 | CC1(c2ccccc2)NC(=O)N(CCN2C(=O)c3ccccc3C2=O)C1=O (stereo not shown) | 9.35
10 | C[N+]1(CC2COC(c3ccco3)O2)CCCCC1.[I-] (stereo not shown) | 17.4
11 | O=C(Nc1ccc(F)cc1F)c1ccccc1NC(=O)C1CC=CCC1C(=O)O (stereo not shown) | 10.7
12 | COc1ccc2c([N+](=O)[O-])c(Cl)[nH]c2c1 | 18.7
13 | Cc1ccc(C(=O)N2C(=S)C(c3ccc(F)cc3)=NC23CCN(C)CC3)cc1 | 3.79
14 | O=C(NCc1ccccc1Cl)C1CCN(S(=O)(=O)N2CCCC2)CC1 | 12.1
15 | Cc1ccc(-c2nc3ccsc3c(=O)o2)cc1 | 16.9
16 | CCc1nc2nc(C)c(NS(=O)(=O)c3ccc(CC(C)C)cc3)c(=O)n2[nH]1 | 12.4
17 | Cc1nnc(SCC(=O)NC2CCCC2)n1C(C)C | 13.2
18 | CC(C)(C)c1ccc(C(=O)NCCN2CCCC2)cc1.Cl | 9.03
19 | O=C(OCc1ccc(F)cc1)c1cc2ccccc2cc1O | 12.5
20 | Cc1nc2scc(-c3cccs3)c2c(=O)n1-n1cccc1 | 0.336
21 | CCCn1c(-c2nonc2N)nc2ccccc21 | 3.96
22 | Cc1c(NS(=O)(=O)c2cc(C(=O)NCC3CCCO3)cc(Cl)c2Cl)c(=O)n(-c2ccccc2)n1C (stereo not shown) | 11

Row | SMILES | hERG current change (%, negative = inhibition) at 1uM [%]
23 | Cc1cccc(CCNc2nc3ccc(C)cc3n3cnnc23)c1 | 15.4
24 | CC(=O)N1CCCc2cc(S(=O)(=O)N3CCCC(C(=O)Nc4cc(C)ccc4C)C3)ccc21 (stereo not shown) | 10.7
25 | CC[n+]1c(/C=C/Nc2ccccc2)oc2ccccc21.[I-] | -64.9
26 | CO/N=C/c1cc([N+](=O)[O-])ccc1Sc1ccc(C)cc1 | 9.84
27 | O=C(NCCN1CCOCC1)c1c(Cl)cccc1Cl | 12.8
28 | CSc1nc(NS(=O)(=O)c2ccc(F)cc2F)nn1C | 8.12
29 | O=C(N/N=C/c1cc([N+](=O)[O-])ccc1O)c1c[nH]c2ccccc12 | 11.3
30 | C[C@H]1CCC/C=C/C2C[C@H](O)CC2[C@H](O)/C=C/C(=O)O1 (stereo partly shown) | 13.6
31 | O=C(NCc1ccccc1)c1cc(S(=O)(=O)N2CCCCC2)ccc1N1CCOCC1 | 6.51
32 | O=C(Nc1ccc(Cl)cn1)C1CCCN(c2ncnc3c2nc2n3CCCCC2)C1 (stereo not shown) | -6.77
33 | OC(COc1cccc2ccccc12)CN1CCN(c2ccc(Cl)cc2)CC1 (stereo not shown) | -1.91
34 | Cc1nn(-c2ccccc2)c(N2CCCC2)c1/C=N/NC(=O)c1cc(-c2ccccn2)nc2ccccc12 | 4.29
35 | Cc1cc(NC(=O)CSc2nnc(-c3ccncc3)n2Cc2ccccc2)n(-c2ccccc2)n1 | -2.26
36 | COC(=O)c1ccc(C(=O)N2CCCC(N3CCN(c4ccccc4)CC3)C2)nc1 (stereo not shown) | 1.6
37 | CC(Oc1ccccc1)C(=O)N1CCCc2ccccc21 (stereo not shown) | 9.2
38 | CC(=O)N1N=C2C3CCN(CC3)C2C1c1ccc(F)cc1 (stereo not shown) | 2.27
39 | N#C/C(=C\c1ccc(OCC(N)=O)cc1)C(=O)NC1CC1 | 4.81
40 | COc1ccc(CCNC(=O)COc2ccc3c(C)cc(=O)oc3c2)cc1OC | 10
41 | Cn1c(=N)c(S(=O)(=O)c2ccc(F)cc2)cc2c(=O)n3ccccc3nc21 | 3.69
42 | O=C(CCc1c[nH]c2ccccc12)NCCc1ccccc1 | 15.5
43 | Cn1nnnc1SCC(=O)Nc1ccccc1C(=O)NC1CC1 | 7.22
44 | O=C(NCC(F)(F)F)Nc1ncccn1 | 15.6

Row | SMILES | hERG current change (%, negative = inhibition) at 1uM [%]
45 | Cc1cc(S(=O)(=O)N2CCCc3ccccc32)ccc1-n1cnnn1 | 11.6
46 | O=C(NCc1ccc(F)cc1)N1CCN(S(=O)(=O)c2ccccc2F)CC1 | 13.7
47 | Cc1cccc(N2CCN(C(=O)c3cc(=O)[nH]c4ccccc34)CC2)c1C | 3.8
48 | O=C(NC1CCN(Cc2ccccc2)CC1)c1ccccc1 | 2.84
49 | COC(=O)/C(=C/c1ccccc1)NC(=O)c1ccco1 | 13.9
50 | COc1ccc(CCc2nnc(CCC(=O)NCc3cnn(-c4ccccc4C)c3)o2)cc1 | 5.01
51 | CCOc1ccc(-n2cnc3sc(C)c(C)c3c2=O)cc1 | 20.6
52 | Cc1cc(SC(C)C(=O)NCC(=O)Nc2ccc(F)c(F)c2F)nc2ccccc12 (stereo not shown) | 2.08
53 | Cc1c(C)c2ccc(OCC(=O)N3CCOCC3)c(C)c2oc1=O | 2.46
54 | CCc1ccc(CNC(=O)C2CCC(=O)N(CCc3ccc(Cl)cc3)C2)nc1 (stereo not shown) | -44.7
55 | COc1c(-c2ccc([N+](=O)[O-])cc2[N+](=O)[O-])c(=O)n(C)c(=O)n1C | 13.6
56 | CC1CCN(C(=O)CSc2nnc(Cc3ccccc3)o2)CC1 | 1.4
57 | COc1cccc(C2/C(=C(/O)c3ccc(C)cc3)C(=O)C(=O)N2Cc2ccco2)c1 (stereo not shown) | 1.53
58 | O=C(COc1ccccc1)N=C1SC2CS(=O)(=O)CC2N1c1ccc(F)cc1F (stereo not shown) | 8
59 | CCOC(=O)CSc1ncc(-c2ccccc2)nn1 | 9.06
60 | CC(=O)N1CCN(S(=O)(=O)c2c(C)n(C)c(=O)n(C)c2=O)CC1 | 14.1
61 | CC1=C(C(=O)Nc2cccnc2)C(c2ccccn2)n2nnnc2N1 (stereo not shown) | 1.76
62 | Cc1onc(-c2ccccc2Cl)c1C(=O)NC(=S)Nc1ccccc1F | 12
63 | Clc1ccc(C(c2ccccc2)N2CCN(c3ccccn3)CC2)cc1 (stereo not shown) | 4.25
64 | CCOc1ccc(NC(=O)c2cc3n(n2)C(C(F)(F)F)CC(c2ccco2)N3)cc1 (stereo not shown) | 18.1
65 | NS(=O)(=O)c1ccc(CNC(=O)CCS(=O)(=O)Cc2ccccc2)cc1 | 10.7
66 | COc1ccccc1Nc1ncc(C(C)=O)c(C)n1 | 11.3

Row | SMILES | hERG current change (%, negative = inhibition) at 1uM [%]
67 | Cc1ccc(O)c(/C=N/NC(=O)c2[nH]ncc2Br)c1 | 14.6
68 | CCOC(=O)C(C)Sc1nnc(Cn2c(=O)sc3ccccc32)n1-c1ccccc1 (stereo not shown) | 4.98
69 | COc1ccc(C2Nc3ccccc3C(=O)N2NS(=O)(=O)c2ccc(C)cc2)cc1 (stereo not shown) | 12.5
70 | Br.Cn1c(=N)n(CC(=O)O)c2ccccc21 | 1.92
71 | O=C1C=CC[C@H](/C=C/C[C@@H](O)C[C@H](O)CCc2ccccc2)O1 | 6.81
72 | COc1ccc(CN2CCC(Cc3ccccc3)CC2)cc1OC.O=C(O)C(=O)O | -32.9
73 | C/C(=N\NC(=O)c1ccccn1)c1ccc(C(=O)O)s1 | 12.1
74 | CCCc1nc(NC2CCCCC2)c(C#N)c2c1COC(C)(C)C2 | 8.45
75 | COc1ccc(NC(=O)Cc2ccccc2)cc1 | 6.08
76 | COC(=O)C1=C(c2ccc(OCc3ccccc3)cc2)C[C@@H]2CC[C@H]1N2C(=O)NC1CCN(Cc2ccccc2)CC1 | 11.8
77 | COc1ccc(N2C(=O)CC(N3CCN(S(=O)(=O)c4cc(C)ccc4C)CC3)C2=O)cc1 (stereo not shown) | 9.67
78 | CCCCC(=O)Nc1ccc(NC(=O)c2ccc([N+](=O)[O-])cc2Cl)cc1OC | 6.31
79 | COCCn1cnnc1SCC(=O)Nc1ccc(Br)cc1F | 8.74
80 | CN(Cc1ccccc1)c1ccc(C(CC(N)=O)NC(=O)c2ccc(Br)cc2)cc1[N+](=O)[O-] (stereo not shown) | 11.4
81 | CCOCCCN(CCC#N)S(=O)(=O)c1ccc(S(=O)(=O)N2CCCC2)cc1 | 17.3
82 | Nc1ccccc1C(=O)NCC1(c2ccccc2)CCCC1 | 13.5
83 | O=C(O)c1ccc(Nc2nc3ccccc3nc2NS(=O)(=O)c2ccc(F)cc2)cc1 | 9.43
84 | O=C(NCC1CCCO1)C(c1ccncc1)N(Cc1cccs1)C(=O)CN1C(=O)c2ccccc2S1(=O)=O (stereo not shown) | 7.4
85 | C=CCC1NS(=O)(=O)OC(CCCC)C1O (stereo not shown) | 20.3
86 | O=C(CCCc1ccccc1)Nc1ccc2c(c1)OCCO2 | 14.9
87 | CCN(CC)Cc1oc(CO)cc(=O)c1O | 30.5
88 | CN(CC(=O)Nc1c(Cl)cccc1Cl)C(=O)c1ccccc1-c1nc2ccccc2s1 | 2.92
